Laboratory results reported in PubChem BioAssay AID588407 (The Scripps Research Institute Molecular Screening Center, 2011).
For part of its entries the source gives two or more results. They are shown here; other results are not. The rule behind the calls is not given here. The source may hold further records. The records of an entry are repeated measurements in other runs, samples, wells, individuals or studies. Brackets tell where a record comes from. Letters count within one entry.

Target: Mu-type opioid receptor (Homo sapiens) + Delta-type opioid receptor (Homo sapiens) (UniProt P35372+P41143)
Chain of UniProt P35372 (P35372 whole entry, looked up): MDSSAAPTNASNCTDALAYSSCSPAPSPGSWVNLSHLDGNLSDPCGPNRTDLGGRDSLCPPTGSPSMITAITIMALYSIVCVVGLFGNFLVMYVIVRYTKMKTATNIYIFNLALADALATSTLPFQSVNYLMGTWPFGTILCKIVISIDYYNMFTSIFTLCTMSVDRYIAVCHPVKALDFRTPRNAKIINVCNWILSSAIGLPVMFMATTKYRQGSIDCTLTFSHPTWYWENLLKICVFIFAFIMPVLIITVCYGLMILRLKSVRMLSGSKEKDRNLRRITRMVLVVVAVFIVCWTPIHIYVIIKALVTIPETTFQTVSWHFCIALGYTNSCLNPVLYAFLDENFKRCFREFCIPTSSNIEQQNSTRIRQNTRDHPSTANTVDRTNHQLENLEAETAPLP
Chain of UniProt P35372 (P41143 whole entry, looked up): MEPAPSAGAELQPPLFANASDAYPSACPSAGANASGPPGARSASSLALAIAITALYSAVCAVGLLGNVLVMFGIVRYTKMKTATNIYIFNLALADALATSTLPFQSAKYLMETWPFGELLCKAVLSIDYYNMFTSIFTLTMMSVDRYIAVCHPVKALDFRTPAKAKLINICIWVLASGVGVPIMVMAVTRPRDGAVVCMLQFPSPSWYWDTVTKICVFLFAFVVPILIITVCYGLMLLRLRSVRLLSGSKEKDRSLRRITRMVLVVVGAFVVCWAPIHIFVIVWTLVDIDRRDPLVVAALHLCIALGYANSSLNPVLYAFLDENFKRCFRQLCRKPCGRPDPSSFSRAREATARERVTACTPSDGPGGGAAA
Assay: agonists of MOR-DOR heterodimerization, dose response, cell-based, luminescence (AID 588407);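 note: potency of agonists raising the heterodimer signal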
Settings: cells

CCC(COC(=O)c1cc(OC)c(OC)c(OC)c1)(c1ccccc1)N(C)C (stereo unspecified)
EC50: inactive [sample A] and 9.5 µM [sample B]
